From PubChem BioAssay (NCATS)
The list shows a part of the results. Shown are side measurements of this screen, not its main read-out; they come without a call. The list favours compounds with an active or inconclusive main result. For some of these results: Potencies come from curve fits of mixed quality, noted in brackets.

What was measured:
[1] = qHTS Assay for Lipid Storage Modulators (AID 1519); settings: Drosophila S3 cells, BODIPY lipid droplet/cell ratio, laser cytometry, cells loaded with oleic acid; for AC50: measured here: lipid (BODIPY) channel AC50
Outline: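 Cells seeded at 5,000 per well were treated with compounds over a concentration series and loaded with oleic acid (400 uM, as added). Lipid droplet fluorescence (488 nm excitation, 500-530 nm channel) was read by laser-scanning cytometry and normalized to 20 uM Triacsin C.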

[2] = qHTS assay for small molecule antagonists of peroxisome proliferator-activated receptor delta signaling (AID 588535); settings: HEK293T PPARd-UAS-bla, beta-lactamase FRET ratio, 18 h; 460 nm channel;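 note: cells co-treated with a PPAR-delta agonist as stimulator during compound exposure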
Outline: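 GeneBLAzer PPAR-delta-UAS-bla HEK293T cells in medium with 2% charcoal/dextran FBS were preincubated 5 hrs at 37 C, then given compounds, incubated 18 hrs at 37 C, and read by CCF4 beta-lactamase fluorescence; IC50 from Hill fits.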

[3] = qHTS assay for small molecule agonists of retinoid X receptor alpha signaling (AID 588544); settings: HEK293T RXRa-UAS-bla, beta-lactamase reporter, 18 h; 530 nm emission
[4] = qHTS assay for small molecule antagonists of retinoid X receptor alpha signaling (AID 588546); settings: HEK293T RXRa-UAS-bla, beta-lactamase ratio, antagonist mode; measured here: W530 green channel, cytotoxicity proxy;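 note: cells stimulated with 9-cis-retinoic acid as agonist; % is set by controls: 0 for no effect and ±100 for the full control effect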
Outline: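 Beta-lactamase reporter inhibition, read as CCF4 fluorescence ratio (ex 405, em 460/530 nm) after 2 h at RT. HEK293T UAS-bla cells, 2500/well, were stimulated with 9-cis-RA at 500 or 100 nM final alongside test compound for 18 h at 37 C.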

[5] = qHTS Assay for Modulators of Human Peripheral Myelin Protein 22 (PMP22) Expression/Activity (AID 1967); settings: Cell-based PMP22 reporter, dual-color luciferase ratio
Outline: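 Luminescence ratio of Pmp22 promoter-driven green luciferase to EF-alpha-driven red luciferase, in engineered mouse MSC80 Schwann cells, served as read-out. Compounds were incubated 24h; untreated cells defined 0% Activity; curves were classified by r2, magnitude and activity.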

[6] = A High-Content qHTS Against Drug Library for the Identification of Small Molecules that Inhibit DYT1 Early Onset Primary Dystonia-Associated Cell Pathology (AID 1645839); settings: HEK293 Flp-In EGFP-delE TorsinA, punctate imaging, 48 h; measured here: cell count cytotoxicity
Outline: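 Readout: %pathology, the punctate EGFP-TorsinA distribution from imaging, as the primary channel and cell count as the toxicity counterscreen. HEK293 Flp-In cells expressing delE TorsinA were induced with tetracycline and treated with compound for 48 h.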

[7] = qHTS Assay for Inhibitors of PDE-IV (AID 607); settings: HEK293 ACTOne CNG channel cells, membrane potential fluorescence; measured here: parental cell counter-screen;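 note: parental cells stimulated with forskolin 10 µM plus RO 20-1724 100 µM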
Outline: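 The readout is membrane depolarisation from a cAMP-sensing CNG channel, detected with a potential dye at ex 535/em 590. Cells were HEK293-derived (endogenous PDE-IV) at 1000 cells/well, titrated up to 22.9 uM final.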

[8] = qHTS assay for small molecule antagonists of peroxisome proliferator-activated receptor gamma signaling (AID 588537); settings: HEK293 PPARg-UAS-bla, beta-lactamase ratio, antagonist mode; measured here: W460 blue channel
Outline: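 PPAR-gamma-UAS-bla HEK293 cells (3000/well, 1% charcoal/dextran-stripped FBS) were preincubated 6-6.5 h at 37 C, given titrated compounds, then stimulated with 50 nM rosiglitazone for 16 h. Beta-lactamase activity was read with CCF4 dye; IC50 came from Hill fits.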

[9] = measured here: cell count channel max response
[10] = measured here: lipid channel max response
Tags give direction and shape of the fitted curve.

**Q.** With CCOP(=S)(OCC)Oc1ccc2c(C)c(Cl)c(=O)oc2c1 as the molecule, how does the max response [1, 9] read?
**A.** 10.5%

**Q.** What about the AC50 [1] of the same molecule?
**A.** 0.501 µM [rising, full curve, poor fit]

**Q.** What about the max response [1, 10] of the same molecule?
**A.** 20%

**Q.** What about the max response [2] of the same molecule?
**A.** 85.3%

**Q.** And the max response [3]?
**A.** 25.7%

**Q.** What about the max response [4] of the same molecule?
**A.** 14.8%

**Q.** With c1ccc2nc(N3CCNCC3)ccc2c1 as the molecule, how does the max response [1, 9] read?
**A.** 40.7%

**Q.** And the max response [1, 10]?
**A.** 41.7%

**Q.** What about the AC50 ([5]; measured here: green reporter channel AC50, mouse Pmp22 promoter in mouse Schwann cells) of the same molecule?
**A.** 67.5 µM [falling, partial curve]

**Q.** And the AC50 ([5]; measured here: red reporter channel AC50, EF-alpha promoter control reporter in MSC80 mouse Schwann cells)?
**A.** 75.7 µM [falling, partial curve]

**Q.** And the AC50 [6]?
**A.** 17.8 µM [falling, single point]

**Q.** For CN(CCc1ccc(Cl)c(Cl)c1)[C@H]1CCCC[C@H]1N1CCCC1, which AC50 [7] is on record?
**A.** 15.8 µM [rising, partial curve]

**Q.** What about the max response [1, 9] of the same molecule?
**A.** 28.7%

**Q.** And the AC50 [1]?
**A.** 35.5 µM [rising, single point]

**Q.** And the max response [1, 10]?
**A.** 35%

**Q.** For O=P1(N(CCCl)CCCl)NCCCO1 (centres undefined), which max response [1, 9] is on record?
**A.** 29.2%

**Q.** And the AC50 [1]?
**A.** 39.8 µM [rising, single point]

**Q.** What about the max response [1, 10] of the same molecule?
**A.** 46.1%

**Q.** What about the AC50 [8] of the same molecule?
**A.** 50.1 µM [rising, single point]
